Source: the supplement of paper PMC5499739
The full ranking holds about 16,000 sequences; the median of “Z-score” is about -0.37, and the highest 2% start at about 3.1. Some of the results follow.

test system: RBM10 RRM1-ZnF-RRM2 (GST-tagged construct); experiment: RNAcompete 7-mer binding Z-score; higher = stronger binding preference
Experimental: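 RNAcompete: 20 pmol GST-tagged RBM10 RNA-binding constructs were incubated with a designed RNA pool of about 241,000 sequences up to 41 nt (1.5 nmol) on glutathione beads for 30 min at 4 °C and washed. Bound RNAs were identified by microarray hybridisation. Each RNA 7-mer is scored by a one-sided Z-score of its enrichment, computed over probes that contain the 7-mer within longer pool sequences.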

Sequence | RNAcompete 7-mer binding Z-score
AUUUCCA | -0.697
CGACAAC | -0.449
AGGUGGA | 3
CAAUAAC | -0.479
AACCCGC | -0.832
CUGGUCA | -0.555
AUUCAUU | -0.468
AAAAUUU | -0.544
CUAGCCU | -0.89
UAUAUUU | -0.712
UAAGCAC | -0.439
CGCGAUC | -0.712
CCUCACA | -0.752
UUUGCCA | -0.697
AAAUCUU | -0.708
CCGCAGG | -0.0452
AGGGCUU | 0.137
UAACCGA | -0.686
GACUAAC | -0.526
GUGGGCA | 3.48
CUUAAGG | 0.141
AUCCCGC | -0.81
UCAACGG | 0.388

Sequence | RNAcompete 7-mer binding Z-score
CUAGACG | -0.395
AUCUUAA | -0.788
UUUCAGG | 0.0277
ACUAUCG | -0.551
UCUGAUU | -0.872
UCUUCCC | -0.759
CGUUGAC | -0.362
GUUAUUA | -0.22
CUCGUGC | -0.73
GCAGAAC | 0.155
CAUGUAC | -0.457
UGAAGGG | 3.56
UGUUUAU | -0.588
CACGGUA | 0.264
AACGCCG | -0.559
CGGCUAU | -0.599
UCCGCGU | -0.468
GCACGCA | -0.227
CAAGGUU | 1.34
AAAUGAC | -0.227
AAGUAAU | -0.162
AACUACA | -0.333
GAUCCCU | -0.919

Sequence | RNAcompete 7-mer binding Z-score
UCACCCA | -0.883
ACCACGG | 0.363
CUUCCCC | -0.646
AAAAUGG | 2.68
UUUGUAU | -0.734
CCGUGAU | -0.362
AAAAUUA | -0.286
AUAAGGU | 1.74
CCCUUUU | -1.01
GAAAUUA | -0.413
GCUCCAU | -0.734
AUUCUCU | -0.752
GUGUAUC | -0.122
CUUUAUA | -0.752
CGGGUAU | 1.39
GGGGUAA | 3.5
AUAUACG | -0.0889
GUAUCGA | -0.129
GACUUUC | -0.89
CUAGAUA | -0.61
ACGCGAU | -0.358
GUAUGUC | -0.195
UUUCGUU | -0.584

Sequence | RNAcompete 7-mer binding Z-score
CCCCGAU | -0.577
GAAAGUU | -0.0561
GCCUACG | -0.511
CGUUCAA | -0.486
GCGCUUA | -0.482
CGGUUGC | 0.166
AUAAUGG | 1.84
UACGCGG | 0.428
GGGGACA | 2.72
CGCAUUA | -0.617
UCUCCGG | -0.588
UAAAUCA | -0.246
GCUCCUU | -0.73
GGCCGUU | -0.588
UGACACC | -0.566
UUAGACU | -0.628
GGGCGCG | 2.1
GAUAUGU | 0.0969
GACGGGA | 2.3
CGCGGAG | 0.876
AGUCAUU | -0.515
UUCGACC | -0.785
AGAAUAU | -0.158

Sequence | RNAcompete 7-mer binding Z-score
GACCGCA | -0.843
CUCCGUG | -0.606
UACAUGA | -0.0853
CGACGGU | 0.261
CCUGACC | -0.876
AUCGCAC | -0.566
GACCCGG | -0.559
GUAAUCG | 0.0422
GUUUUCU | -0.559
GAAGUCC | -0.5
CUUCUGU | -0.85
GAAUCAU | -0.0634
UGAUCAA | -0.435
CAUACAU | -0.519
UUCCGAU | -0.77
UACACUA | -0.442
CGAUUAU | -0.65
GGUCGAC | 0.385
CGUAGCA | -0.213
CAUGAUG | -0.0561
UCGAACA | -0.278
UGGAUUA | 0.975
GCCUUCU | -0.697

Sequence | RNAcompete 7-mer binding Z-score
GUAGGUA | 2.25
AUCGUCU | -0.712
CUCGGUA | -0.377
GAGCUGA | 0.213
GAUCUCC | -0.897
UCCGGUC | -0.668
GCGCCAU | -0.522
CGAUGUA | 0.0641
UCACAUU | -0.675
CCUUUAU | -0.941
GCUAGGA | 1.05
GUUCAAG | -0.0124
CGAGAGC | -0.136
GCUCCCC | -0.464
UCCCGAU | -0.85
CCCUCCC | -0.457
GGCACUC | -0.216
UGUACCC | -0.581
UUUGACG | -0.551
GUAUCCU | -0.694
CGCAGAG | 0.436
UACCGGA | 0.119
UAGCGAC | 0.162

Sequence | RNAcompete 7-mer binding Z-score
AGCCCCG | -0.679
CGUCAGG | 0.326
UGCGUAG | 0.326
UACGGGU | 2.02
UUAGUCC | -0.686
CUCUUAG | -0.661
AUCCCCC | -0.435
UGAGAAG | 1.33
GCAUUCA | -0.449
AAAGUUU | -0.322
GAAACUA | -0.337
GGCACAU | 0.213
UUCGGCA | -0.493
GCAUCGG | 0.275
GACGCUC | -0.774
CUACCCA | -0.948
CCGUGGG | 1.89
AAGGGAC | 3.43
UAACUUA | -0.475
CGUGCUU | -0.675
GGACGGG | 4.18
GUGGGUG | 3.76
ACUUCGG | -0.402

Sequence | RNAcompete 7-mer binding Z-score
GUCCAAC | -0.657
UCCUCCG | -0.825
GAUGUCA | -0.253
GCACUGA | -0.202
UGGGUGC | 2.74
CGGGACC | 0.858
CGUUUCC | -0.817
GUUCAUG | -0.315
UGACAAC | -0.384
CGGUUGA | 0.876
UGUAGCA | -0.395
AUUCCGG | -0.559
GCGGCCA | -0.118
UUACCGU | -0.606
UCCCGUG | -0.351
UGAACAG | 0.468
AUAGGAC | 1.32
UAAUGUC | -0.42
UCAUCUC | -0.723
GCCUUCC | -0.795
CAUACCU | -0.748
UUCAUUG | -0.38
GGCGGGG | 3.64
